# The least precise scores are not listed. Not listed are two conditions whose scores span a narrow range. In variant names, del marks residues removed and ins residues inserted between the two positions. For part of these data: How much ogerin was present is not stated here.
# B1: GPR68, Q15743 (parent)
# chain: MGNITADNSSMSCTIDHTIHQTLAPVVYVTVLVVGFPANCLSLYFGYLQIKARNELGVYLCNLTVADLFYICSLPFWLQYVLQHDNWSHGDLSCQVCGILLYENIYISVGFLCCISVDRYLAVAHPFRFHQFRTLKAAVGVSVVIWAKELLTSIYFLMHEEVIEDENQHRVCFEHYPIQAWQRAINYYRFLVGFLFPICLLLASYQGILRAVRRSHGTQKSRKDQIQRLVLSTVVIFLACFLPYHVLLLVRSVWEASCDFAKGVFNAYHFSLLLTSFNCVADPVLYCFVSETTHRDLARLRGACLAFLTCSRTGRAREAYPLGAPEASGKSGAQGEEPELLTKLHPAFQTPNSPGSGGFPTGRLA
# What was measured:
# [1] = variants of: B1; experiment: cAMP reporter score (Enrich2 score, wild type = 0); higher = more signal; HEK293T, FACS bins
# [2] = variants of: B1; experiment: surface expression score (Enrich2 score, wild type = 0); higher = more signal; HEK293T, FACS bins
Variant,cAMP reporter score ([1]; pH 5.5),cAMP reporter score ([1]; pH 6),"cAMP reporter score ([1]; pH 6, modulator: ogerin)","cAMP reporter score ([1]; pH 6.5, modulator: ogerin)",surface expression score [2]
G193K,-1,-0.403,-1.68,-1.12,-2.79
G193L,-0.619,–,–,-0.585,–
G193M,-1.94,-0.564,-0.88,-1.07,-2.37
G193N,-0.699,–,-0.973,0.165,-2.07
G193P,-1.76,–,-2.04,-1.35,-2.33
G193Q,0.328,-0.757,-1.44,-1.37,-2.12
G193R,-1.22,-1.9,-1.67,-1.31,-2.13
G193S,-0.13,0.571,0.388,0.083,-0.644
G193T,-1.18,-0.958,-1.77,-1.22,-2.61
G193V,-1.71,-1.16,-1.65,-1.45,-2.37
G193W,-1.6,-0.701,-1.63,-1.84,-2.19
G193Y,-0.864,1.95,-1.27,–,-0.678
G193_L195del,-1.23,-1.1,-2.12,-1.45,-2.91
F194A,0.422,0.204,-0.003,-0.444,-0.752
F194C,1.73,–,0.308,–,–
F194D,-0.482,–,-0.83,-0.423,-0.42
F194E,-0.522,–,-0.702,-0.681,-2.35
F194G,-0.999,-0.731,-1.21,-1.4,-1.44
F194I,-0.589,-0.675,-2.5,-0.219,-1.62
F194L,-0.4,–,-0.826,-0.549,-1.42
F194M,0.29,–,-1.31,–,-2.11
F194N,-0.623,-0.177,–,-0.521,-2.14
F194P,-1.78,-1.81,-1.3,-1.37,-2.48

Variant,cAMP reporter score ([1]; pH 5.5),cAMP reporter score ([1]; pH 6),"cAMP reporter score ([1]; pH 6, modulator: ogerin)","cAMP reporter score ([1]; pH 6.5, modulator: ogerin)",surface expression score [2]
F194Q,-0.411,-1.48,–,–,-1.59
F194R,-2.43,-1.11,-2.6,-0.702,-2.42
F194S,-0.424,–,-0.166,-0.406,-2.27
F194T,-0.686,-1.32,-0.571,0.914,-3.07
F194V,-1.24,-0.588,-1.31,-1.15,–
F194W,0.411,-0.418,-0.91,0.636,–
F194Y,0.396,-0.711,-2.78,-2.16,-2.51
F194_L195insG,-1.82,-0.776,-1.8,-1.95,-2.56
L195_P197del,-0.871,-1.22,-1.05,-0.848,-3.41
F196_P197del,-1.39,-1.71,–,-1.08,-2.39
P197_I198insGSG,-1.49,-1.76,-1.79,-0.616,–
C199A,0.103,-1.02,0.35,0.551,0.001
C199E,-0.851,-1.81,-1.02,-0.698,-2.61
C199F,0.923,0.439,1.06,0.679,-0.426
C199G,-0.056,-0.41,0.16,-0.867,-0.368
C199H,-0.178,-0.187,–,-3.11,–
C199I,-0.169,-0.798,–,0.401,0.992
C199M,1.24,0.452,1.5,1.34,0.485
C199N,-1.55,–,-2.45,-1.32,–
C199Q,-0.867,-1.33,-0.97,-0.695,-2.46
C199R,-5.2,-0.434,-0.614,0.407,–
C199S,0.359,-1.09,0.236,-0.892,0.408
C199T,0.723,–,0.792,0.792,0.244

Variant,cAMP reporter score ([1]; pH 5.5),cAMP reporter score ([1]; pH 6),"cAMP reporter score ([1]; pH 6, modulator: ogerin)","cAMP reporter score ([1]; pH 6.5, modulator: ogerin)",surface expression score [2]
C199V,0.031,-0.272,-0.259,-0.808,0.394
C199W,0.199,-0.844,0.269,-0.02,-1.61
C199Y,-0.939,-0.783,-0.959,-1.67,-1.62
C199_L200del,-0.403,-0.545,–,–,-2.03
C199_L200insGSG,-2.36,-1.47,-2.36,-2.32,-2.1
C199_L201del,-0.411,-0.355,-4.35,–,-0.324
C199del,-1.22,-1.28,-1.83,-1.01,-2.39
L200_L201insGSG,-1.54,-1.18,–,–,-1.8
L200del,-1.2,-0.421,-1.29,-1.28,-1.5
L201A,0.207,–,-1.62,-1.43,-0.685
L201C,-0.412,-1.58,-0.562,-0.703,2.11
L201D,-0.884,-1.96,–,-1.34,-3.23
L201E,-1.34,-0.432,–,–,-1.72
L201F,2.46,5.14,0.67,1.82,–
L201G,-1.1,-0.671,–,-1.69,-0.89
L201H,-2.47,-0.089,–,-1.17,-0.419
L201I,0.885,0.825,0.712,-0.212,0.537
L201K,-1.14,-0.65,–,-0.493,-1.81
L201M,0.31,0.791,-0.214,0.344,1.17
L201N,-2.22,-1.34,–,–,1.03
L201P,-0.998,0.217,–,-0.76,–
L201Q,-0.119,-1.38,-1.02,-0.551,-0.923
L201R,-2,-2.34,-2.17,-1.13,-2.73

Variant,cAMP reporter score ([1]; pH 5.5),cAMP reporter score ([1]; pH 6),"cAMP reporter score ([1]; pH 6, modulator: ogerin)","cAMP reporter score ([1]; pH 6.5, modulator: ogerin)",surface expression score [2]
L201S,0.672,-1.43,-1.44,-1.04,0.381
L201T,-0.222,-0.492,-1.02,-1.69,0.42
L201V,-0.122,-0.274,-0.414,-0.998,1.21
L201W,-0.403,–,–,-2.45,-2.86
L201Y,-0.31,-0.551,–,-0.797,-2.46
L201_L202insG,-2.05,-1.09,-1.71,-0.741,-2.43
L201_L202insGSG,-1.58,–,-2.63,-1.92,-1.54
L202A,0.387,–,0.702,1.34,0.037
L202C,1.28,2.36,1.96,3.19,0.802
L202D,-2.52,-1.29,–,-2.4,-3.35
L202E,-0.847,-1.28,-1.07,-1.29,-2.65
L202F,0.621,–,0.039,0.475,-0.114
L202G,-0.003,1.17,0.929,1.9,-0.927
L202H,0.832,0.592,–,-0.433,-1.22
L202I,1.01,-0.471,1.1,1.96,1.16
L202K,-0.944,-1.84,-0.5,-1.13,–
L202M,-0.037,-0.293,-0.041,0.265,-0.874
L202Q,-0.765,-0.684,-1.76,-0.978,-1.96
L202S,-0.029,–,–,-0.369,-2.48
L202T,1.47,1.56,1.22,2.31,-0.078
L202V,0.768,0.155,0.583,1.06,-0.224
L202W,0.234,0.884,0.768,1.57,0.391
L202Y,-0.917,-1.98,-0.394,-1.51,-1.9

Variant,cAMP reporter score ([1]; pH 5.5),cAMP reporter score ([1]; pH 6),"cAMP reporter score ([1]; pH 6, modulator: ogerin)","cAMP reporter score ([1]; pH 6.5, modulator: ogerin)",surface expression score [2]
A203C,-0.622,-0.497,0.033,-0.245,-0.139
A203D,-0.866,-0.663,-1.18,-1.15,-1.38
A203F,1.2,1.53,1.33,2.4,2.25
A203G,0.101,-0.623,–,-0.43,1.21
A203I,0.383,0.087,0.179,0.926,0.211
A203K,-1.15,-0.912,-0.492,–,-1.76
A203L,-0.03,–,0.609,-0.328,1.04
A203M,0.863,–,0.421,0.949,1.42
A203N,1.85,0.119,–,-1.05,–
A203P,0.223,1.04,0.253,-0.567,-2.17
A203Q,-0.423,-0.648,-0.642,-0.432,–
A203R,-0.511,–,-0.878,-0.721,-1.72
A203S,1.11,-0.214,0.72,0.863,0.784
A203T,1.33,0.639,2.02,0.83,0.292
A203W,-0.395,–,-1.32,-1.09,-0.286
A203Y,0.829,1.61,1.29,1.56,1.2
A203_S204del,-1.56,-0.659,-1.49,-0.864,-2.18
A203_S204insGS,-0.868,–,-1.78,-1.31,-2.02
A203_Y205del,-1.81,-1.58,-1.62,-0.948,-1.47
A203del,-0.906,-1.13,-1.27,-1.03,-1.67
S204A,0.568,-0.163,1.13,-0.483,–
S204C,1.35,2.64,0.595,–,1.13
S204E,-1.31,-2.64,-2.12,-0.719,–

Variant,cAMP reporter score ([1]; pH 5.5),cAMP reporter score ([1]; pH 6),"cAMP reporter score ([1]; pH 6, modulator: ogerin)","cAMP reporter score ([1]; pH 6.5, modulator: ogerin)",surface expression score [2]
S204F,-0.007,–,-0.299,–,-1.56
S204G,-0.132,0.294,0.809,-0.601,-1.2
S204I,-0.432,–,-0.671,–,-0.38
S204K,-0.236,–,–,-2.3,-0.529
S204L,0.34,-0.946,-0.498,–,-0.491
S204M,0.853,2.01,0.975,1.5,-0.729
S204N,0.847,-0.559,–,-0.847,-1.33
S204P,-0.413,-0.644,-0.067,-1.25,-2.06
S204Q,-1.3,0.405,-0.602,-1.69,-2.81
S204R,-0.673,-1.77,-0.995,-0.771,-1.98
S204T,1.03,-0.06,0.74,-0.985,-0.293
S204V,0.552,-0.957,-0.318,-0.649,0.601
S204W,-1.78,0.244,-0.588,–,-2.61
S204Y,-1.22,-0.947,-1.46,-1.31,-2.38
S204_Y205del,-1.44,-2.01,-2.29,-0.976,-2.16
S204_Y205insG,-1.5,-1.55,-0.952,-0.802,-1.89
S204_Y205insGSG,-0.536,-0.247,–,0.107,-2.25
S204del,-2.18,-1.48,-1.43,-0.871,-1.98

# From the GPR68 mutational scans of Howard et al. (2025)
